Measurements: the supplement of paper PMC11417369
± gives the standard deviation of the averaged measurements. This is one part of the list.

What follows are sequences tested on PfAP2-I AP2 domain 3 (GST-tagged) (assay: gcPBM binding intensity (ln(normalized median fluorescence intensity)); higher = stronger DNA binding).
Summary of the method: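 Binding intensity is defined as the maximum Masliner-normalised natural-log median intensity across replicate spots for either probe orientation. It was measured on an Agilent 4 × 180k array of primer-extended double-stranded 36-bp intergenic genomic probes and negative controls, to which GST-tagged P. falciparum DNA-binding domains made in E. coli were applied for 1 h in 1× PBS with 1% milk, 0.2 mg/ml BSA, 0.5% salmon testes DNA and 0.03% Triton X-100. Detection was by Alexa488 anti-GST antibody and scanning at 488 nm.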

Sequence	gcPBM binding intensity (ln)
TATAAATATTACGGTAGTACTATACATATATATAAT [XGTACX_site7442]	7.78 ± 0.53
CATATAAAAAGACACACACACACATATATATATATA [CACACA_site940]	9.66 ± 0.5
ATATATTTTCAAAAAAGTAAATCAAAATAAATATAT [TGCATGCA_negctrl_site319]	7.78 ± 0.69
TCCAAATACAACTACACACAAACAAAAATTATATAT [CACACA_site881]	7.84 ± 0.49
ATGGTTTAGTTATATACACACTCGAAAATAACGACA [CACACA_site7520]	7.88 ± 0.49
TATAAAAATATATTTACACACTATATATATCGAAAG [CACACA_site1700]	7.71 ± 0.38
TTAAAATTAATTCACCAGTATTAAAATAAAAACGAA [CACACA_negctrl_site1428]	8.04 ± 0.26
AAATAAAATTTTATGTGTACGCAAAAAGTTGTAAGC [XGTACX_site8911]	8.46 ± 0.62
AAAATTTTTCTTAAAGCATGCACAATTAAGAAGACG [TGCATGCA_site883]	8.49 ± 0.73
TTTTTTTTAAGAGATAGTACATAAATATTATAATAT [XGTACX_site4685]	7.82 ± 0.42
AAGATATATATAGAAAGTACTTATATTTGTATAATT [XGTACX_site8855]	7.83 ± 0.44
ATATTAATATATATGTTTTATTACCATTTTATGTAT [CACACA_negctrl_site1761]	7.7 ± 0.59
AATAAATAAATATATACACACATATATATATAATAT [CACACA_site921]	7.5 ± 0.47
TGAAAAAATATAAAATATAAAATAAAAAATATAAAA [GTGCAC_negctrl_site536]	7.43 ± 0.67
TACAATCTAAAATACACACACACAAACATATATTTA [CACACA_site3702]	7.68 ± 0.36
TCTACAATTATAATTACACACTATAAAAAAGAAAGA [CACACA_site2984]	7.96 ± 0.35
AAAAATAGGAACCAATATCCAACGTGACTTTATAAT [CACACA_negctrl_site1011]	7.68 ± 0.81
ATTTTTTTTTTTTTTTTTTTTTTTTTTTGATTTGTG [CACACA_negctrl_site1391]	7.53 ± 0.51
AAAATAATTATGAATTGTACAGGTTTTTTTTTTTTT [XGTACX_site220]	7.86 ± 0.42
AAAAAATTTTTAAGCACACACATAGATAATATATAT [CACACA_site1555]	8.78 ± 0.13
GGAAAAAAAAAAAAAAAACACACGGTACATTCAAAC [CACACA_site2715]	7.88 ± 0.78
ATGTCAAATTTTTGTGCACACATATATAGTTATTAT [CACACA_site2242]	10.78 ± 0.028

Sequence	gcPBM binding intensity (ln)
ATAAAAATTGATTATACACACGCGCACCCACAACAA [CACACA_site3536]	9.05 ± 0.24
TATTTATAAATTTACACACACACATGGGAACATAAA [CACACA_site5111]	8.18 ± 0.45
TAAGGATAAATAAAATGAAATGAAATAAATAAATGA [XGTACX_negctrl_site539]	7.54 ± 0.57
TATATATATCAGCAATGTACACAATGCATATTATAT [XGTACX_site4836]	7.92 ± 0.61
TTATTTTATTTTAAAAAAAACAATATAAATTCAAAG [GTGCAC_negctrl_site57]	7.57 ± 0.3
ATTATACAAAATGGTAAGGAAAAGGAAATTTTTTTT [CACACA_negctrl_site1090]	7.5 ± 0.76
CAATATTATATATATACACACATAATCTGTAAAAAC [CACACA_site1068]	7.8 ± 0.5
AAAAAAAAAAATATCACACACACATAAATATAAACA [CACACA_site7138]	7.67 ± 0.67
CATATATATATATATACACACATATATATTTTCTTT [CACACA_site1457]	8.06 ± 0.47
AAAGTAGGCTTATATGCACACTTTGAAATATTATAA [CACACA_site5117]	9.31 ± 0.45
TTTATATGCAATTAAGTGCATAAGAAAAAAAAAGGA [GTGCAC_site9966]	10.5 ± 0.27
TTATAAAATAAACTTACACACATGAAATATTATAGT [CACACA_site7000]	7.74 ± 0.5
CAAACAAATTGTGAAACACACATATTTATATTTATA [CACACA_site7030]	7.42 ± 0.35
TCATAGCACAAAAAATGTACTTATTATTTAATATTT [XGTACX_site5687]	7.79 ± 0.35
ATGTGATAATTTAATAGTACATAACAGTTTAACAAT [XGTACX_site5854]	7.93 ± 0.76
TTATAATAAATATTTATTATATATAATATATATTAC [CACACA_negctrl_site1802]	7.58 ± 0.4
TATATTATATATTTATGTACGTATTTGTAAAAAGAT [XGTACX_site3444]	8.36 ± 0.23
TTTTTTATTAAATATATATAATAATAATAATTTGTA [CACACA_negctrl_site1719]	7.35 ± 0.4
TTTGTTTTATGTGGTTGTACACAAATACAATTTAAA [XGTACX_site5156]	7.92 ± 0.15
GTTTCCTTAATATTCACACACATATCTATAATATAT [CACACA_site6959]	8.22 ± 0.76
ATAATAATTATATCAGTGCGCATATATATTTATTTA	9.41 ± 0.72
GATCATAATATTTAAAAGAATATATATAAAAAGGAA [XGTACX_negctrl_site310]	7.83 ± 0.54
